# Source: PubChem BioAssay AID463173 (ICCB-Longwood Screening Facility, Harvard Medical School, 2010)
# Out of some 52,000 compounds screened, about 4,300 (8.3%) were called active. Rule as the data show it: active = survival mostly below about 52% (no sharp cut-off); inactive = mostly above about 56%. The list shows a part of the results.
# Test system: DeltatarO mutant
# Experiment: S. aureus survival, RN4220 and DeltatarO strains – OD600, teichoic acid synthesis inhibitors, primary screen (AID 463173)
# Details: S. aureus RN4220 wild type/DeltatarO growth, OD600, 18 h, stronger effect = lower value, screened at 18.75 µg/mL (by protocol)
row,Structure (SMILES),survival
1,CCOc1ccc(C(=O)c2oc3ccccc3c2NC(=O)c2cc(-c3ccc(C)cc3)on2)cc1,inactive: 95%
2,O=C(CN1C(=O)CSC1=O)N1CCCCC1,inactive: 78%
3,Cc1ccc(-c2cc(C(F)(F)F)n3ncc(-c4ccccc4)c3n2)cc1,inactive: 57%
4,S=c1sc2ccccc2n1CN1CCOCC1,inactive: 78%
5,Cn1nnnc1SCCCNCc1cccc(OCc2ccccc2)c1,inactive: 85%
6,O=CN1CCN(C(=O)c2ccc(F)cc2)CC1,inactive: 78%
7,Cc1c(C(=O)OCc2ccccc2)[nH]c2c1C(=O)CC(c1ccc(Cl)cc1)C2 (configuration not stated),inactive: 98%
8,O=C(NCc1ccc(Cl)cc1)NC1COc2ccccc2C1 (configuration not stated),inactive: 92%
9,CCOc1ccc(S(=O)(=O)Nc2cccc(-c3ccc(N4CCC(C)CC4)nn3)c2)cc1,inactive: 86%
10,O=C(NCc1ccco1)c1ccc(Cn2c(SCc3ccccc3F)nc3cccnc32)cc1,inactive: 102%
11,CCOc1cc(S(=O)(=O)N(C)C2CCCCC2)c(OCC)cc1-n1cnnn1,inactive: 99%
12,O=C(CSc1ncccc1C(=O)Oc1ccccc1Cl)Nc1ccccc1Cl,inactive: 89%
13,CN(C)c1ccc(CNC(=O)C2COc3ccccc3C2)cc1 (configuration not stated),active: 32%
14,CN1C(=O)c2ccccc2Sc2ccc(NC(=O)c3ccc(C(F)(F)F)cc3)cc21,inactive: 96%
15,N#Cc1ccccc1NS(=O)(=O)c1ccc(N2CCCCS2(=O)=O)cc1,inactive: 95%
16,CCCc1nn2c(=O)cc(COC(=O)c3ccc(NC(=O)COc4ccccc4)cc3)nc2s1,inactive: 92%
17,CN1CCN(CC(=O)N(c2ccccc2)c2ccc(O)cc2)CC1,inactive: 93%
18,O=C1NCCN1C(=O)NC1CCCCC1,inactive: 81%
19,COc1ccc(CNC(=O)CCc2c(C)c3cc4c(C)coc4c(C)c3oc2=O)cc1OC,inactive: 57%

row,Structure (SMILES),survival
1,Cc1ccc(S(=O)(=O)CC(=O)N2CCN(c3nc4c(F)cccc4s3)CC2)cc1,active: -5%
2,COc1cccc(CN2c3ccccc3-c3nc(SCC(=O)Nc4ccccc4Cl)ncc3S2(=O)=O)c1,inactive: 60%
3,COc1ccc(Nc2cc(C(=O)NCCCN3CCN(c4ccccc4F)CC3)c3ccccc3n2)c(OC)c1,active: 48%
4,Cc1ccc(-c2ccc(=O)n(CCC(=O)NCCc3ccccc3)n2)cc1,inactive: 83%
5,CCN(CC)CCNC(=O)c1cc2c(=O)n(C)c3cc(Cl)ccc3c2s1,inactive: 89%
6,CCOC(=O)c1[nH]c(C)c(CCC(=O)NCc2ccc(CC)cc2)c1C,inactive: 62%
7,O=C1CSC2(C(=O)N(Cc3cccc(F)c3)c3ccccc32)N1c1cccc(C(F)(F)F)c1 (configuration not stated),inactive: 75%
8,CC(C)COc1ccc(C(=O)N2CCN(CCc3ccncc3)CC2)cc1,inactive: 52%
9,COc1ccc(N(C)C(=O)c2cn(C)c(=O)c3cc(OC)c(OC)cc23)cc1,inactive: 177%
10,Cc1ccc(Cn2c(CO)cnc2SCC(=O)Nc2ccc(C)c(Cl)c2)cc1,active: -5%
11,COc1ccc(NC(=O)c2ccc3nc(C(C)C)oc3c2)cc1OC,inactive: 86%
12,CCn1cc(C(=O)N2CCN(c3ccccc3)CC2)c(=O)c2cc(S(=O)(=O)N3CCOCC3)ccc21,inactive: 86%
13,CCC(Oc1ccc(F)cc1)C(=O)Nc1c(C(=O)c2ccc(C)cc2)oc2ccccc12 (configuration not stated),inactive: 89%
14,CCn1c2c(c(=O)n3ncc(C(=O)N4CCN(c5ccc(Cl)cc5)CC4)c13)CN(Cc1ccc(OC)cc1)CC2,inactive: 101%
15,c1cnc2c(c1)NC1(CCCCC1)N2,inactive: 86%
16,COC(=O)c1cc2oc3ccccc3c2n1Cc1ccc(Cl)cc1,inactive: 76%
17,COc1ccc(C(=O)CSc2nnc(-c3ccoc3C)n2CC(C)C)cc1,inactive: 66%
18,COc1ccc(-c2nc3scc(CCNS(=O)(=O)c4ccc(F)cc4C)n3n2)cc1,inactive: 84%
19,Cc1c(C(=O)Nc2ccccc2)sc2nc(-c3cc4cc(Cl)ccc4oc3=O)[nH]c(=O)c12,active: 45%

row,Structure (SMILES),survival
1,COc1cccc(N2CCN(C(=O)C3CCN(S(=O)(=O)c4c(C)noc4/C=C/c4ccccc4F)CC3)CC2)c1,inactive: 77%
2,CCC(=O)Nc1ccccc1-c1nc2ccccc2n(CC(=O)Nc2ccccc2OC)c1=O,inactive: 61%
3,Cc1ccccc1C(=O)Nc1ccc2nc(N3CCCCC3)cc(C)c2c1,active: 32%
4,CCc1ccccc1N/C=C(\C#N)c1nc2ccccc2[nH]1,inactive: 95%
5,CC1CCN(C(=O)C(C)Sc2nnc3c(n2)[nH]c2ccccc23)CC1 (configuration not stated),inactive: 102%
6,COc1ccc(NC(=O)Cn2cc(S(=O)(=O)c3ccccc3)c(=O)c3cc4c(cc32)OCO4)cc1,inactive: 67%
7,CCN1CCc2c(sc(-n3cccc3)c2C(C)NC(=O)Nc2ccc(Br)cc2)C1 (configuration not stated),inactive: 102%
8,CCCC(=O)OCc1cnc(C)c2oc(=O)c(C(=O)Nc3cccc(C(F)(F)F)c3)cc12,inactive: 87%
9,Cc1cccc(N2CCN(C(=O)C3CCN(S(=O)(=O)c4c(C)noc4C)CC3)CC2C)c1 (configuration not stated),inactive: 100%
10,COc1ccc(N(Cc2cccs2)C(=O)c2ccc(OC)c(Cl)c2)cc1,inactive: 59%
11,CCc1nnc(NC(=O)CSC2=NC(=O)C(NC(C)=O)C(=O)N2)s1 (configuration not stated),inactive: 99%
12,COc1ccc(CC(NC(C)=O)C(=O)NC2CCN(c3nc(OC)nc(OC)n3)CC2)cc1 (configuration not stated),inactive: 88%
13,COc1cc(CNC(=O)c2ccc3c(c2)c(C)c(C)n3Cc2cccc(C)c2)cc(OC)c1OC,inactive: 102%
14,CCN(CC)C(=O)c1sc2c(c1C)c(=O)n(CCc1ccccc1)c(=O)n2Cc1cc(C)ccc1C,inactive: 81%
15,CC(C)(C)C(=O)NCC(c1ccc2c(c1)OCO2)N1CCOCC1 (configuration not stated),active: 0%
16,O=C(NCCc1ccc(Cl)cc1)c1ccc(CS(=O)(=O)c2ccc(Cl)cc2)o1,inactive: 74%
17,Cc1cccc(C)c1NC(=O)C(NS(=O)(=O)c1cccs1)c1ccccc1 (configuration not stated),inactive: 56%
18,O=C(Cn1ccn(-c2ccc(F)cc2)c(=O)c1=O)Nc1ccc(F)cc1,inactive: 60%
19,Cc1cc(C)c2c(c1)c(C)cc1nnc(SCc3ccccc3C#N)n12,inactive: 68%
